Here are results for 1 molecule from US20240067738A1 (ELANCO US, published 2024).

The target in experiment [1] is T1, Canine IL4_C-His6 (processed) (canine, UniProt O77762 25-131).
T1 sequence: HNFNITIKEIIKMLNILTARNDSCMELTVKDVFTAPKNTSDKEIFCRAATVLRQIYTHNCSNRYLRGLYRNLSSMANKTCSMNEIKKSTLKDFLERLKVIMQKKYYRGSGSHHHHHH
In words: BLI (Octet), IL4R-ECD_C-HuFc_His6 on anti-human Fc tips, ligand 50 µg/mL first. As to the method: (§1) The opposite binding assay was also performed. The association between canine IL4_C-His6 (SEQ ID NO: 127; 50 μg/mL) or canine IL13_C-His6 (SEQ ID NO: 157; 50 μg/mL) and canine IL4R-ECD_C-HuFc_His6 captured on anti-human Fc-bound sensor tips was monitored for 600 seconds. The complex-bound tips were washed briefly and then exposed to Clone B antibody (50 μg/mL) or Clone I antibody (50 μg/mL) and monitored for 600 seconds. Following IL4 and IL13 binding to IL4R (FIG. 3C and FIG. 3D, respectively), further association with Clone B or Clone I was observed.

The target of experiment [2] is T2, Canine IL13_C-His6 (processed) (canine, UniProt Q9N0W9 19-131).
T2 sequence: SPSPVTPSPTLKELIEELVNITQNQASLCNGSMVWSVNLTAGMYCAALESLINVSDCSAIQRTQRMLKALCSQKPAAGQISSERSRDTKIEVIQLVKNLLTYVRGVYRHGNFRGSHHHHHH
The description is as above. How it is done:
as §1

B1: Canine IL4R-ECD_C-HuFc_His6 (processed) (Fc fusion)
chain: GSVKVLHEPSCFSDYISTSVCQWKMDHPTNCSAELRLSYQLDFMGSENHTCVPENREDSVCVCSMPIDDAVEADVYQLDLWAGQQLLWSGSFQPSKHVKPRTPGNLTVHPNISHTWLLMWTNPYPTENHLHSELTYMVNVSNDNDPEDFKVYNVTYMGPTLRLAASTLKSGASYSARVRAWAQTYNSTWSDWSPSTTWLNYYEPGSENLYFQ[letters of human IgG1 Fc and a few adjoining residues omitted]
notes: Whole construct (ECD, linker, human Fc, His6) is one entry
B1: the binding result in experiment [1] and in experiment [2] was “binds” each time.
